Experimental findings from patent US20240199750A1 (INNATE PHARMA, published 2024) are described below.

Assay [1] deals with T1, high affinity IL-2Rαβγ complex on Treg cells (human, UniProt P01589 22-272; P14784 27-551; P31785 23-369).
T1 sequence (looked up) 1: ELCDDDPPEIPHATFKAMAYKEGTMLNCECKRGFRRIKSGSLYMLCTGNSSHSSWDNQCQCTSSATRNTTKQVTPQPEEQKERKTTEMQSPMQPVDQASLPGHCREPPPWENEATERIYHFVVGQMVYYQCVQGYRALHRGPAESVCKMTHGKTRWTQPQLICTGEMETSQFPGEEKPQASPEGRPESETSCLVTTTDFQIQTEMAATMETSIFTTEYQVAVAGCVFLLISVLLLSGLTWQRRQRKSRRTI
T1 sequence (looked up) 2: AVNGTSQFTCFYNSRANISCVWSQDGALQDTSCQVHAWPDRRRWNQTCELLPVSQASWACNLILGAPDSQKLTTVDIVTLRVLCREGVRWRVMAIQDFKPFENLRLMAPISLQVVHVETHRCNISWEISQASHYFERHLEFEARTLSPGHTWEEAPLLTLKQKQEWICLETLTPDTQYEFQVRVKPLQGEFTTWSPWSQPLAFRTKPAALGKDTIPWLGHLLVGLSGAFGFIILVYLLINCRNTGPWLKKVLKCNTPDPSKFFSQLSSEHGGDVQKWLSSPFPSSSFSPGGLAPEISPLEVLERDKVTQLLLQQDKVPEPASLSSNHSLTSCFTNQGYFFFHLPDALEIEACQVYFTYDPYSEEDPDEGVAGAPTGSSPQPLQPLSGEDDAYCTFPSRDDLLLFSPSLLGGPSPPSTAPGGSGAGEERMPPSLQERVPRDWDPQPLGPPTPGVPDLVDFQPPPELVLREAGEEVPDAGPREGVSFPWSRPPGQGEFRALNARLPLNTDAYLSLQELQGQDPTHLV
T1 sequence (looked up) 3: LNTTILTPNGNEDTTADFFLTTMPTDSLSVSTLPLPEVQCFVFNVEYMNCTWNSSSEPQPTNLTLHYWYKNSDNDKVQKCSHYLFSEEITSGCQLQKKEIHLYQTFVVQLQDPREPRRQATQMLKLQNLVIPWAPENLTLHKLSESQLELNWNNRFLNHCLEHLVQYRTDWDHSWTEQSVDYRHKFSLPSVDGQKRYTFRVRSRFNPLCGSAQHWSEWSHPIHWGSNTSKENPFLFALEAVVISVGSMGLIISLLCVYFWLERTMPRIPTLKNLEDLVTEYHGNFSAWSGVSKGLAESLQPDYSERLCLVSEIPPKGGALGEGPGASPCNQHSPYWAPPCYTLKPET
The assay is described as follows: cell-based or functional assay.

The target of assay [2] is T2, IL-2Rβ (CD122) on NK cells (human, UniProt P14784 27-551).
T2 sequence (looked up): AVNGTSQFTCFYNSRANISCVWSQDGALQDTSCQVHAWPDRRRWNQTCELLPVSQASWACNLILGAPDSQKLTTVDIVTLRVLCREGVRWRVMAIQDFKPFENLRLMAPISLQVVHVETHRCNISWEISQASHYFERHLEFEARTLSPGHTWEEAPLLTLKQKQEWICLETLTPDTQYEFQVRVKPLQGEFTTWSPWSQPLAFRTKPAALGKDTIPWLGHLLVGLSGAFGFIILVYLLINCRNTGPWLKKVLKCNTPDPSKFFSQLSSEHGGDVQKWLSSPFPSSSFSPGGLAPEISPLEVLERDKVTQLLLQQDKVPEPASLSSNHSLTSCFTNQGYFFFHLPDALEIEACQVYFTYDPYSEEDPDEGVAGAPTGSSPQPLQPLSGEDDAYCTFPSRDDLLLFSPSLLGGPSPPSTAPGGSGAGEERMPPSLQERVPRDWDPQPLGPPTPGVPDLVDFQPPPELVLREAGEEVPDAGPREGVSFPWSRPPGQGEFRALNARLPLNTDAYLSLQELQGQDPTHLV
As to the kind of experiment: cell-based or functional assay.

In assay [3] the target is T1, high affinity IL-2Rαβγ complex on Treg …. The assay is described as follows: cell-based or functional assay. The source holds these as a separate data set.
For assay [4], the target named is T3, Human NKp46 recombinant proteins (human, UniProt O76036 22-258).
T3 construct: also called recombinant human NKp46 proteins
T3 sequence: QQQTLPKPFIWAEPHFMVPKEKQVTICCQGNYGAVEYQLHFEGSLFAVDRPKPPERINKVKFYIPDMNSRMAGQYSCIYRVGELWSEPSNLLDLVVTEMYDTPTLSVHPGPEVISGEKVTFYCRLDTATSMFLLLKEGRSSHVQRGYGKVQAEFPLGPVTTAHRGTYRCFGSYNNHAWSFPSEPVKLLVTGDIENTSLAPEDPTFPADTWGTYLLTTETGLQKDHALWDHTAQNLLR
As to the kind of experiment: SPR (Biacore T100, 25 C), protein captured on Protein-A chip, soluble recombinant human NKp46 6.25-400 nM injected, 1:1 kinetic model, monovalent affinity. On the procedure: SPR measurements were performed on a Biacore T100 apparatus (Biacore GE Healthcare) at 25° C. In all Biacore experiments HBS-EP+ (Biacore GE Healthcare) and NaOH 10 mM served as running buffer and regeneration buffer respectively. Sensorgrams were analyzed with Biacore T100 Evaluation software. Protein-A was purchased from (GE Healthcare). Human NKp46 recombinant proteins were cloned, produced and purified at Innate Pharma.
Protein-A proteins were immobilized covalently to carboxyl groups in the dextran layer on a Sensor Chip CM5. The chip surface was activated with EDC/NHS (N-ethyl-N′-(3-dimethylaminopropyl) carbodiimidehydrochloride and N-hydroxysuccinimide (Biacore GE Healthcare)). Protein-A was diluted to 10 μg/ml in coupling buffer (10 mM acetate, pH 5.6) and injected until the appropriate immobilization level was reached (i.e. 2000 RU). Deactivation of the remaining activated groups was performed using 100 mM ethanolamine pH 8 (Biacore GE Healthcare).
Seven serial dilutions of human NKp46 recombinant proteins, ranging from 6.25 to 400 nM were sequentially injected over the captured Bi-Specific antibodies and allowed to dissociate for 10 min before regeneration. The entire sensorgram sets were fitted using the 1:1 kinetic binding model.

Assay [5] deals with T4, human FcRn (recombinant FcRn proteins) (human, UniProt P55899 partial chain; P61769 partial chain).
T4 construct: Immobilised on a CM5 chip; also called neonatal Fc receptor
The assay is described as follows: SPR, recombinant human FcRn immobilised on CM5 chip, SCK/Two state reaction.

T4 sequence (P55899 24-297 limits assumed, chain 1 of 2): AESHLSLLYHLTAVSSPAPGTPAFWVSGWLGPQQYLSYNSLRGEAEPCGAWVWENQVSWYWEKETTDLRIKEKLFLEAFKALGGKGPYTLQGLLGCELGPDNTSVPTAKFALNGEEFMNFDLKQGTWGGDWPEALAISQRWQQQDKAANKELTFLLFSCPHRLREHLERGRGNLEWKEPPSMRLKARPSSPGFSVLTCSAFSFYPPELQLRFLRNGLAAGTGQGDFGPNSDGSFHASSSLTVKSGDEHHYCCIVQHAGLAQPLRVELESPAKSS
T4 sequence (P61769 21-119 limits assumed, chain 2 of 2, further chain): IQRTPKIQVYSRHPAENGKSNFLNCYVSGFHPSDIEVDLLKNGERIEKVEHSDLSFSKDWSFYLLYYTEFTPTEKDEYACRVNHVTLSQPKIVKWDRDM

B1: IC-T6-IC-IL2pWT (Fc fusion)
chain 1: EVQLVESGGGLVQPGRSLRLSCAASGFTFDNYAMHWVRQAPGKGLEWVSGISRSSGDIDYADSVKGRFTISRDNAKNSLYLQMNSLRAEDTALYYCARGGVGSFDTWGQGTMVTVSSASTKGPSVFPLAPSSKSTSGGTAALGCLVKDYFPEPVTVSWNSGALTSGVHTFPAVLQSSGLYSLSSVVTVPSSSLGTQTYICNVNHKPSNTKVDKRV[human IgG1 Fc with N297S (EU numbers) not spelt out]TGSEVQLVQSGAEVKKSGESLKISCKGSGYSFTSYWIGWVRQMPGKGLEWMGIFYPGDSSTRYSPSFQGQVTISADKSVNTAYLQWSSLKASDTAMYYCARRRNWGNAFDIWGQGTMVTVSSRTVAAPSVFIFPPSDEQLKSGTASVVCLLNNFYPREAKVQWKVDNALQSGNSQESVTEQDSKDSTYSLSSTLTLSKADYEKHKVYACEVTHQGLSSPVTKSFNRGEC
chain 2: EIVLTQSPATLSLSPGERATLSCRASQSVRSYLAWYQQKPGQAPRLLFSDASNRATGIPARFSGSGSGTDFTLTISSLEPEDFAVYYCQQYRYSPRTFGQGTKVEIKRTVAAPSVFIFPPSDEQLKSGTASVVCLLNNFYPREAKVQWKVDNALQSGNSQESVTEQDSKDSTYSLSSTLTLSKADYEKHKVYACEVTHQGLSSPVTKSFNRGE[human IgG1 Fc with N297S (EU numbers) not spelt out]
chain 3: [about 100 residues not spelt out]ASTKGPSVFPLAPSSKSTSGGTAALGCLVKDYFPEPVTVSWNSGALTSGVHTFPAVLQSSGLYSLSSVVTVPSSSLGTQTYICNVNHKPSNTKVDKRVEPKSCDKTHSGSSSSGSSSSGSSSSTKKTQLQLEHLLLDLQMILNGINNYKNPKLTRMLTFKFYMPKKATELKHLQCLEEELKPLEEVLNLAQSKNFHLRPRDLISNINVIVLELKGSETTFMCEYADETATIVEFLNRWITFCQSIISTLT
For B1, the “% pSTAT5, EC50 Tregs” value in assay [1] was 2 pM. The “% pSTAT5, EC50 NK cells” value in assay [2] was 0.6 nM.

B2: IC-T6-IC-IL2v (Fc fusion)
chain 1: EVQLVESGGGLVQPGRSLRLSCAASGFTFDNYAMHWVRQAPGKGLEWVSGISRSSGDIDYADSVKGRFTISRDNAKNSLYLQMNSLRAEDTALYYCARGGVGSFDTWGQGTMVTVSSASTKGPSVFPLAPSSKSTSGGTAALGCLVKDYFPEPVTVSWNSGALTSGVHTFPAVLQSSGLYSLSSVVTVPSSSLGTQTYICNVNHKPSNTKVDKRV[human IgG1 Fc with N297S (EU numbers) not spelt out]TGSEVQLVQSGAEVKKSGESLKISCKGSGYSFTSYWIGWVRQMPGKGLEWMGIFYPGDSSTRYSPSFQGQVTISADKSVNTAYLQWSSLKASDTAMYYCARRRNWGNAFDIWGQGTMVTVSSRTVAAPSVFIFPPSDEQLKSGTASVVCLLNNFYPREAKVQWKVDNALQSGNSQESVTEQDSKDSTYSLSSTLTLSKADYEKHKVYACEVTHQGLSSPVTKSFNRGEC
chain 2: EIVLTQSPATLSLSPGERATLSCRASQSVRSYLAWYQQKPGQAPRLLFSDASNRATGIPARFSGSGSGTDFTLTISSLEPEDFAVYYCQQYRYSPRTFGQGTKVEIKRTVAAPSVFIFPPSDEQLKSGTASVVCLLNNFYPREAKVQWKVDNALQSGNSQESVTEQDSKDSTYSLSSTLTLSKADYEKHKVYACEVTHQGLSSPVTKSFNRGE[human IgG1 Fc with N297S (EU numbers) not spelt out]
chain 3: [about 100 residues not spelt out]ASTKGPSVFPLAPSSKSTSGGTAALGCLVKDYFPEPVTVSWNSGALTSGVHTFPAVLQSSGLYSLSSVVTVPSSSLGTQTYICNVNHKPSNTKVDKRVEPKSCDKTHSGSSSSGSSSSAPASSSTKKTQLQLEHLLLDLQMILNGINNYKNPKLTRMLTAKFAMPKKATELKHLQCLEEELKPLEEVLNGAQSKNFHLRPRDLISNINVIVLELKGSETTFMCEYADETATIVEFLNRWITFAQSIISTLT
With B2, in assay [3], the “EC50 for STAT5 phosphorylation among the Treg” value is ~3 log.

B3: CD19-F13-NKp46-3 (bispecific antibody, human IgG1, kappa)
chain 1: DIQLTQSPASLAVSLGQRATISCKASQSVDYDGDSYLNWYQQIPGQPPKLLIYDASNLVSGIPPRFSGSGSGTDFTLNIHPVEKVDAATYHCQQSTEDPWTFGGGTKLEIKRTVAAPSVFIFPPSDEQLKSGTASVVCLLNNFYPREAKVQWKVDNALQSGNSQESVTEQDSKDSTYSLSSTLTLSKADYEKHKVYACEVTHQGLSSPVTKSFNRGE[human IgG1 Fc not spelt out]
chain 2: QVQLQQSGAELVRPGSSVKISCKASGYAFSSYWMNWVKQRPGQGLEWIGQIWPGDGDTNYNGKFKGKATLTADESSSTAYMQLSSLASEDSAVYFCARRETTTVGRYYYAMDYWGQGTTVTVSSASTKGPSVFPLAPSSKSTSGGTAALGCLVKDYFPEPVTVSWNSGALTSGVHTFPAVLQSSGLYSLSSVVTVPSSSLGTQTYICNVNHKPSNTKVDKRV[human IgG1 Fc not spelt out]TGSEVQLQQSGPELVKPGASVKISCKTSGYTFTEYTMHWVKQSHGKSLEWIGGISPNIGGTSYNQKFKGKATLTVDKSSSTAYMELRSLTSEDSAVYYCARRGGSFDYWGQGTTLTVSSVEGGSGGSGGSGGSGGVDDIVMTQSPATLSVTPGDRVSLSCRASQSISDYLHWYQQKSHESPRLLIKYASQSISGIPSRFSGSGSGSDFTLSINSVEPEDVGVYYCQNGHSFPLTFGAGTKLELK
notes: Heterodimer: VH anti-CD19-CH1-CH2-CH3-(VH-Vk) anti-NKp46 scFv, paired with Vk anti-CD19-Ck-CH2-CH3; copies: 1 + 1
Consider B3, for which, in assay [4], the dissociation constant (Kd) is 68 nM, the koff was 0.00565 s⁻¹ and the on-rate constant (kon) is 83000 M⁻¹ s⁻¹.

B4: CD19-F14-NKp46-3 (bispecific antibody, human IgG1, kappa)
chain 1: DIQLTQSPASLAVSLGQRATISCKASQSVDYDGDSYLNWYQQIPGQPPKLLIYDASNLVSGIPPRFSGSGSGTDFTLNIHPVEKVDAATYHCQQSTEDPWTFGGGTKLEIKRTVAAPSVFIFPPSDEQLKSGTASVVCLLNNFYPREAKVQWKVDNALQSGNSQESVTEQDSKDSTYSLSSTLTLSKADYEKHKVYACEVTHQGLSSPVTKSFNRGE[human IgG1 Fc with N297S (EU numbers) not spelt out]
chain 2: QVQLQQSGAELVRPGSSVKISCKASGYAFSSYWMNWVKQRPGQGLEWIGQIWPGDGDTNYNGKFKGKATLTADESSSTAYMQLSSLASEDSAVYFCARRETTTVGRYYYAMDYWGQGTTVTVSSASTKGPSVFPLAPSSKSTSGGTAALGCLVKDYFPEPVTVSWNSGALTSGVHTFPAVLQSSGLYSLSSVVTVPSSSLGTQTYICNVNHKPSNTKVDKRV[human IgG1 Fc with N297S (EU numbers) not spelt out]TGSEVQLQQSGPELVKPGASVKISCKTSGYTFTEYTMHWVKQSHGKSLEWIGGISPNIGGTSYNQKFKGKATLTVDKSSSTAYMELRSLTSEDSAVYYCARRGGSFDYWGQGTTLTVSSVEGGSGGSGGSGGSGGVDDIVMTQSPATLSVTPGDRVSLSCRASQSISDYLHWYQQKSHESPRLLIKYASQSISGIPSRFSGSGSGSDFTLSINSVEPEDVGVYYCQNGHSFPLTFGAGTKLELK
notes: Same structure as F13 but with the CH2 mutation N297S to abolish N-linked glycosylation; copies: 1 + 1
For B4, in assay [4], the dissociation constant Kd is 62 nM, the off-rate (koff) came out at 0.00546 s⁻¹ and the on-rate (kon) was 88300 M⁻¹ s⁻¹. Further, in assay [5], the Kd was 14 nM.
